Structures are written as SMILES. The campaign covered roughly 310,000 compounds. About 2,200 (0.71%) showed an effect of 50% or more. The effect is printed as a negative number. This is one part of the list.

The target of the test is human ether-à-go-go-related gene (hERG) potassium channel (human, UniProt Q12809). The test is described as follows: primary screen, population patch clamp on CHO cells stably expressing hERG.
Sequence of human ether-à-go-go-related gene (hERG) potassium channel (Q12809 whole entry, looked up): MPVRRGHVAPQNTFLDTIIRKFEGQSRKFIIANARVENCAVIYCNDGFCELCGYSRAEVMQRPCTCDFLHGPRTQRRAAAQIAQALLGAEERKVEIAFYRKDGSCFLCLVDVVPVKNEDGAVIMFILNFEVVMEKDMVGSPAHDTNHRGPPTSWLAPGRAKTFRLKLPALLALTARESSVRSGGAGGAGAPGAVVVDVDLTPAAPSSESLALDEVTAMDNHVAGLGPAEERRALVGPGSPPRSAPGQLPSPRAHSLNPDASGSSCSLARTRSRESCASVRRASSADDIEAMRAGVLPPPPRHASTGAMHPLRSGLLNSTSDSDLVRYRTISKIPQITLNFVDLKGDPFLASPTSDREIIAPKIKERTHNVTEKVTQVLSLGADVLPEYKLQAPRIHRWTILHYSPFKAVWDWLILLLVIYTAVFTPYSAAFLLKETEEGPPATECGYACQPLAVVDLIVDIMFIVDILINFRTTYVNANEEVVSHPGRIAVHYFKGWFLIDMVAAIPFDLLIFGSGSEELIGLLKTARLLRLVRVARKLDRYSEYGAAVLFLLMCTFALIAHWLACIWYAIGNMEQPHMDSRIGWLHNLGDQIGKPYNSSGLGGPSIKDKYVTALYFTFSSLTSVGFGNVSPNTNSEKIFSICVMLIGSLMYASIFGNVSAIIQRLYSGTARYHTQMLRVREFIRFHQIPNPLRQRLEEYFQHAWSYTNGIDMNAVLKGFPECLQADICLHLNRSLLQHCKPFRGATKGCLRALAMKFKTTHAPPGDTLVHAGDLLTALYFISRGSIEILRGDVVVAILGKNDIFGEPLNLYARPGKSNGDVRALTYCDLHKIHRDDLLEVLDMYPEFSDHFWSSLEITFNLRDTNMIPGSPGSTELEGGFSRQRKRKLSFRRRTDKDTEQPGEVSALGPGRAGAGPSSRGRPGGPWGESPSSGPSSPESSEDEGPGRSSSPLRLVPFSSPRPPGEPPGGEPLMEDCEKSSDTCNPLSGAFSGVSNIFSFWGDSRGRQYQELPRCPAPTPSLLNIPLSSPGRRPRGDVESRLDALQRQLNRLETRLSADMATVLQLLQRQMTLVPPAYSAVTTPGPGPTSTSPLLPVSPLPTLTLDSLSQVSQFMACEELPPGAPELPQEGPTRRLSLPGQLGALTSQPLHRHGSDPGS
As for `O=C(Cc1c(C(=O)O)[nH]c2ccc(Cl)cc12)Nc1ccc2c(c1)OCCO2`, the “hERG current change (%, negative = inhibition) at 1uM” value came out at 11.6%. The result for `CCOC(=O)C(C)n1cnc2c(nnn2-c2ccc(OC)cc2)c1=O` (stereo not drawn) reads -2.53%.

In the case of `COc1ccc(C(=O)N2CCN(Cc3ccccn3)CC2)cc1.O=C(O)C(=O)O`, the “hERG current change (%, negative = inhibition) at 1uM” value was determined as 3.65%. The result for `Clc1ccc(OCCCNCc2ccccc2)c2ccccc12.O=C(O)C(=O)O` reads 11.6%. The result for `Cc1c(C(=O)OC/C(O)=C(\C#N)c2nc3ccccc3[nH]2)oc2ccc(Br)cc12` reads 8.98%. The result for `CC1(C(=O)N(CC(=O)NC2CCCC2)Cc2ccco2)CC(=O)N=C2C=CC=CN21` (stereo not drawn) reads 9.85%.

On to `N#Cc1ccc(OCC(=O)NCCc2ccc(S(N)(=O)=O)cc2)cc1`, for which the “hERG current change (%, negative = inhibition) at 1uM” value is recorded as 6.97%. For `COc1ccccc1CCNS(=O)(=O)c1cc2c3c(c1)C(C)C(=O)N3CCC2` (stereo not drawn), the “hERG current change (%, negative = inhibition) at 1uM” value is reported as 12.7%. The result for `O=C(c1ccco1)N1CCN(S(=O)(=O)c2ccc(C3CCCCC3)cc2)CC1` reads 9.58%; that for `COc1ccccc1CNC(=O)c1ccc(NS(=O)(=O)c2c(C)noc2C)cc1`, 5%; that for `O=C(c1ccncc1)c1ccc(N2CCN(C3CC(=O)N(Cc4ccccc4)C3=O)CC2)cc1` (stereo not drawn), -9.19%. The result for `CCc1c(C(=O)NCCc2ccc(OC)c(OC)c2)[nH]c(C)c1C(C)=O` reads 9.02%. The result for `CC(C)[C@H](NS(=O)(=O)c1ccccc1)C(=O)OCn1nnc2ccccc2c1=O` reads 4.31%; that for `Cc1ccccc1-c1nn(-c2ccc(F)cc2F)cc1CNCC(C)O` (stereo not drawn), 5.64%. In the case of `CN(CCOc1ccccc1Cl)Cc1ccccc1.O=C(O)C(=O)O`, the “hERG current change (%, negative = inhibition) at 1uM” value was 14%.

For the compound `CCCC(=O)Nc1c(-c2ccccc2OC)c(=O)c2ccccc2n1C`, the “hERG current change (%, negative = inhibition) at 1uM” value is given as -1.6%. On to `O=S(=O)(c1cccs1)N1CCN(CC(O)COC2CCCc3ccccc32)CC1` (stereo not drawn), for which the “hERG current change (%, negative = inhibition) at 1uM” value was 14.7%. The result for `COc1ccc(C(=O)O/N=C(\N)c2ccc(OC)c(OC)c2)c(OC)c1` reads 9%; that for `COc1cc(C(=O)OCC(=O)Nc2cc(S(=O)(=O)N3CCOCC3)ccc2C)ccc1OCC(C)C`, -0.0958%; that for `Cc1cc(C(=O)CSc2nnc(N)s2)c(C)n1CCc1ccc(Cl)cc1`, -4.99%. `Cc1ccc(CNC(=O)CCS(=O)(=O)c2ccc3nc(C)sc3c2)cc1`: the “hERG current change (%, negative = inhibition) at 1uM” value was 11%. Consider `COc1cccc(/C(C)=N/NC(=O)Cc2c(C)[nH][nH]c2=O)c1`, for which the “hERG current change (%, negative = inhibition) at 1uM” value turned out to be 9.17%. The result for `CSc1ccccc1NC(=O)c1ccc(Br)o1` reads 5.2%. The result for `O=S(=O)(NCC(O)c1ccccc1)c1ccc(-c2ccccn2)s1` (stereo not drawn) reads 15.6%. The result for `Cc1cc(C)cc(C(=O)NC(CC(N)=O)c2ccc(NC3CCCCCCCCCCC3)c([N+](=O)[O-])c2)c1` (stereo not drawn) reads -5.02%; that for `CCOC(=O)c1csc(NC(=O)C2=COCCO2)n1`, 13.2%. Turning to `CCOC(=O)N1CCN(C(=O)c2ccc3c(c2)NC(=O)/C(=C\c2ccc(OC)c(OC)c2)S3)CC1`, the “hERG current change (%, negative = inhibition) at 1uM” value was 9.3%. The result for `CC(NC(=O)COC(=O)Cc1ccc(-c2ccccc2)cc1)c1ccccc1` (stereo not drawn) reads 14.3%; that for `Cn1c(CCN2CCCC2)nc2cc(NS(=O)(=O)c3ccccc3)ccc21`, 6.41%; that for `COc1ccc2cc(C(=O)N3CCC(Cc4ccccc4)CC3)[nH]c2c1`, 16.2%. The result for `O=C(COC(=O)c1ccncc1)c1ccc(Br)cc1` reads 11.3%; that for `COCCCNC(=O)CCc1c(C)nc2c(-c3ccc(F)cc3)c(C)nn2c1C`, -7.41%; that for `CC(C)C[C@@H](C(=O)NC1CCN(Cc2ccccc2)CC1)N1C(=O)N2CCc3c([nH]c4ccccc34)[C@@]2(C)C1=O`, -12.1%. The result for `CCOC(=O)c1c(NC(=O)CSc2nnc(-c3ccc(C)cc3)o2)sc(C(C)=O)c1C` reads 13.9%. On to `CCOC(=O)c1sc2nc(C)nc(NCCc3ccc(S(N)(=O)=O)cc3)c2c1C`, for which the “hERG current change (%, negative = inhibition) at 1uM” value came to 13.7%. The result for `CCCCC1=CC2=CC(=O)C(C)(OC(=O)CCC(=O)OC)C(=O)C2=CO1` (stereo not drawn) reads 8.73%; that for `Cc1cc(C(C)(C)C)cc(C)c1S(=O)(=O)N1CCN(C(=O)c2cc([N+](=O)[O-])c[nH]c2=O)CC1`, 3.68%. Take `Cc1cc(N2C(=O)C(O)=C(C(=O)c3cc4ccccc4o3)C2c2ccc([N+](=O)[O-])cc2)no1` (stereo not drawn): the “hERG current change (%, negative = inhibition) at 1uM” value was found to be 23.7%. The result for `CC(C)(C)NC(=O)C(=O)NN=C1CCCCCCCCCCC1` reads 10.6%. The result for `CC(C)(C)NC(=O)CSc1nc(O)cc(=O)[nH]1` reads 11.6%; that for `Cc1ccc2c(c1)N(C(=O)CCC(=O)NCCN1CCOCC1)CC(C)O2` (stereo not drawn), 4.33%. The result for `Cc1onc(-c2c(Cl)cccc2Cl)c1C(=O)NCc1ccco1` reads 6.16%.
